Measured values from article PMC6919601, “Identification of Plasmodium dipeptidyl aminopeptidase allosteric inhibitors by high throughput screening” (PLoS ONE, 2019).
In all, about 110,000 compounds went through this assay and about 230 (0.21%) showed an effect of 50% or more. This is one part of the list.

The compounds below were run against DPAP1 (Plasmodium falciparum, UniProt Q8IIJ9) (assay: primary screen, percent inhibition; read by cleavage of a fluorogenic dipeptide substrate; higher = more effect of the substance).
Chain of DPAP1 (Q8IIJ9 whole entry, looked up): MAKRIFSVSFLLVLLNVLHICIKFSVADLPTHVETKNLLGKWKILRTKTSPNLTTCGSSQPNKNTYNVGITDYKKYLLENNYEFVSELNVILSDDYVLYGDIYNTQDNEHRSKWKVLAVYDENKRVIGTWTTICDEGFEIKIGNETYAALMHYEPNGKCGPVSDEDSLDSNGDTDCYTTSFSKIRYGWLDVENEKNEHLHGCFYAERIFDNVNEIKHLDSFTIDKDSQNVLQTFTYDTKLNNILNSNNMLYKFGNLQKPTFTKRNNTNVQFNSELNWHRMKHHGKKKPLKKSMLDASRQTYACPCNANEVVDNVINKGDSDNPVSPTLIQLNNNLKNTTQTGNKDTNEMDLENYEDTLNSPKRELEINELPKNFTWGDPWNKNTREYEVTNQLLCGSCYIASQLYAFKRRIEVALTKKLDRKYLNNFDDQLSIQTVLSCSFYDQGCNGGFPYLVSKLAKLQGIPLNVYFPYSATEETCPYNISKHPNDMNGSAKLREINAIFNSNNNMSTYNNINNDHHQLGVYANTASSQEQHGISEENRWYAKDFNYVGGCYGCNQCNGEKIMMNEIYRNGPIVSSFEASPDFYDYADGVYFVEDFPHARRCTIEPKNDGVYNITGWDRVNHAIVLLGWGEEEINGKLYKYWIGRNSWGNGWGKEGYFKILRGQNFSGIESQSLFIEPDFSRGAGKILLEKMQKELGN
Design: species or system P. falciparum D10 trophozoite lysates; single well
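Also: 30 min substrate incubation versus DMSO and 10 µM JCP410 controls.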

Point of comparison: `Cc1oc2ncnc(NCC3CCCO3)c2c1C(=O)O` (stereo not shown), “% Inhibition @ 10 uM” value -5.76%. Against it:
- O=C(CC(=O)c1ccccc1)Nc1cc([N+](=O)[O-])ccc1Cl — higher, 3.34%
- COc1ccc(OC)c(C2=NOC(C(=O)NC3CCCC3)C2)c1 (stereo not shown) — higher, -3.94%
- CC(NC(=O)CCCN1C(=O)CSc2ncccc21)C12CC3CC(CC(C3)C1)C2 (stereo not shown) — higher, -0.637%
- CCc1c(C#N)c(N)nc2sc(C(=O)OCc3ccccc3)c(N)c12 — higher, 15.3%
- CCOC(=O)c1c(NC(=O)c2cc(C)on2)sc2c1CCCC2 — higher, 0.0221%
- CCOC(=O)c1c(NC(=O)CSc2nnnn2-c2ccccc2)sc2c1CCCC2 — higher, -0.0267%
- NC(=O)c1nc(-c2ccccc2)c(-c2ccccc2)nc1O — higher, 4.94%
- CC1CCC(NC(=O)CCc2cn(C)c3ccccc23)CC1 (stereo not shown) — higher, 1.13%
- CCOC(=O)Cn1nnc2ccccc21 — higher, -0.268%
- COc1cc(-c2cc(N)n(S(=O)(=O)c3ccc(F)c(C)c3)n2)cc(OC)c1OC — higher, 1.15%
- Cc1ccc(NC(=O)c2ccccc2O)nc1 — higher, 1.13%
- CCOc1ccc(CCNC(=O)CCCc2nnc3n(C)c(=O)c4sccc4n23)cc1 — lower, -6.26%
- COC(=O)c1[nH]nc2c1C(=O)N(C1CCCCC1)C2=O — higher, -3.5%
- Cc1c(CNCc2ccco2)c(C(=O)O)c(C)n1Cc1ccccc1F — higher, -1.92%
- CCCN(CCC)S(=O)(=O)c1ccc(C(=O)N2CCN(C)CC2)cc1 — higher, -1.69%
- N#Cc1ccccc1NC(=O)C1CC1c1ccccc1 (stereo not shown) — higher, 0.716%
- COc1cccc(NS(=O)(=O)c2ccc(OC)c(Cl)c2Cl)c1 — higher, -0.0619%
- CCOC(=O)Nc1cccnc1[N+](=O)[O-] — higher, -1.97%
- FC(F)(F)c1cccc(N2CCN(Cc3ccsc3)CC2)c1 — higher, -0.294%
- Cc1ccc(-c2nn(-c3ccccc3)cc2C2SCC(=O)N2Cc2ccccc2)o1 (stereo not shown) — higher, 5.59%
- C/C=C(\C)CN(C)CCc1ccccn1 — higher, -1.78%
- Cc1cccc(C)c1OCC(O)CN1CCN(c2ccccc2F)CC1 (stereo not shown) — higher, 5.29%
- CC1=CC(C)(C)N(S(=O)(=O)c2ccc(C)cc2)c2cc(C)ccc21 — higher, 3.03%
- CCOC(=O)c1sc(N2C(=O)c3oc4ccccc4c(=O)c3C2c2ccc(O)c(OC)c2)nc1C (stereo not shown) — higher, 2.16%
- CC1=C(C(=O)OCCc2ccccc2)C(c2ccccc2OCc2ccccc2)NC(=O)N1 (stereo not shown) — higher, 4.1%
- COc1ccccc1C1C2=C(O)CC(C)(C)CC2=NC(C)=C1C(=O)Nc1ccccc1C (stereo not shown) — higher, 3.05%
- Clc1cccc(OCCCn2ccnc2)c1 — lower, -8.75%
- COc1ccc(NC(=O)c2ccc(S(=O)(=O)N3CCCCCC3)cc2)cc1 — lower, -12.5%
- Brc1cc(-c2ccccc2)c(CN2CCOCC2)s1 — higher, -3.23%
- CC(Cc1ccccc1)NC(=O)c1ccc(Cn2cc(Cl)cn2)o1 (stereo not shown) — higher, -2.83%
- CCOC(=O)C1=CN(Cc2ccc(OC)cc2)C=C(C(=O)OCC)C1c1ccccc1Cl — higher, -1.48%
- O=C(Cc1csc2ccccc12)NCCc1ccccc1 — higher, -3.53%
- CCOc1ccc(C(=O)C2=C(O)C(=O)N(Cc3cccnc3)C2c2ccc(C)cc2)cc1 (stereo not shown) — higher, 8.37%
- CN1CCN(C(=O)C2CCCN(S(=O)(=O)N3CCCCC3)C2)CC1 (stereo not shown) — higher, -4.68%
- COc1ccc(CCNC(=O)Cn2ncc3c2-c2ccccc2OC3)c(OC)c1 — higher, -0.692%
- CCOC(=O)C1CCN(C2CCCC(C)C2)CC1 (stereo not shown) — higher, -4.75%
- NC(=O)Cn1c2ccccc2c2nc3n(c(=O)c21)CCS3 — higher, 1.32%
- C=CCSc1ncc(Cl)c(C(=O)Nc2sc3c(c2C(=O)OC)CCCC3)n1 — higher, 2.41%
- CC(=O)N/C(=C\c1ccccc1)C(=O)NCc1ccc(Cl)c(Cl)c1 — lower, -7.57%
- Nc1no[n+]([O-])c1C(=O)CSc1nnnn1-c1ccccc1 — higher, -0.92%
- Cn1cc(CSCC(=O)NCc2ccccc2)cc1C(=O)C(F)(F)F — higher, 7.76%
- CN(C)c1ccc(/C=C2\C(=O)NC(=S)N(c3cccc4ccccc34)C2=O)cc1 — higher, 4.61%
- COc1ccccc1/C=C1\SC(=O)N(CN2CCOCC2)C1=O — lower, -6.79%
- CCCCN(CC)CCNC(=O)CCCn1nc(CC)n2c(cc3oc(C)cc32)c1=O — higher, -3.35%
- CCCC(=O)n1nc(-c2ccccc2)nc1NCc1ccco1 — lower, -6.71%
- CC(NC(=O)c1ccc(Cl)cc1)c1ccccc1 (stereo not shown) — higher, 0.035%
- Cc1ccc2[nH]c(C3=C(N)N(CC4CCCO4)CC3=O)nc2c1 (stereo not shown) — higher, 0.486%
- O=S1(=O)CC(N2CCOCC2)c2ccccc21 (stereo not shown) — higher, 0.757%
- Cc1nnc(N2CCC(C(=O)N3CCc4ccccc4C3)CC2)c2nn(-c3ccccc3)c(C)c12 — higher, 5.5%
- CC(=O)Nc1ccc2oc(-c3cc(F)c(F)cc3Cl)nc2c1 — lower, -7.89%
- Cc1ccc2oc(=O)c3cc(C(=O)NC(C)c4ccc5c(c4)OCCO5)sc3c2c1 (stereo not shown) — higher, 5.74%
- COc1ccc(CCNS(=O)(=O)c2ccc(-c3ccc(O)nn3)s2)cc1OC — higher, -3.26%
- Cn1c(=O)c2c(ncn2C/C=C/c2ccccc2)n(C)c1=O — higher, -1.28%
- O=C1c2ccccc2C(=O)N1CC(=O)n1nc(-c2ccco2)nc1NCc1ccc(Cl)cc1 — lower, -6.98%
- Cn1nccc1CNC(=O)c1ccc(COc2ccccc2Cl)cc1 — higher, -4.15%
- Cc1ccc(OCC(=O)Nc2ccc(C)c(O)c2)cc1 — higher, -0.545%
- O=C(c1ccc(F)cc1)C(CN1CCOCC1)c1ccccc1 (stereo not shown) — higher, 3.44%
- CN(C)S(=O)(=O)c1ccc(C(=O)Nc2ccccc2-c2nc3ccccc3s2)cc1 — higher, -0.424%
- CC[C@@H](C)[C@H](NC(=O)c1ccccc1)C(=O)N[C@@H](CCc1ccccc1)C(=O)CO — higher, 6.4%
- COc1ccccc1CNC(=O)Cn1ncc2c3ccccc3n(Cc3ccccc3F)c2c1=O — higher, 1.8%
- COc1ccccc1Cn1nnc2c(O)nc(C3CCN(C(=O)Cc4ccc(F)cc4)CC3)nc21 — higher, 3.81%
- Cc1cccc(C(=O)Nc2scc(CC(C)C)c2C(=O)O)c1 — higher, 6.51%
- O=C(CN(Cc1ccccc1)S(=O)(=O)c1cc(Cl)ccc1Cl)N1CCCCCC1 — lower, -6.02%
- CCn1cc(Br)c(C(=O)Nc2ccccc2OC)n1 — higher, -5.69%
- CCc1oc(C(N)=O)cc1COC — higher, 9.78%
- Cc1cccc(NC(=O)CN2C(=O)c3cccc4cccc2c34)c1 — lower, -9.02%
- COc1ccc(-c2cn(-c3cccc(C)c3)c(O)n2)cc1OC — higher, -2.01%
- CCCO/C(O)=C1\C(C)=NC2=C(C(=O)CC(c3ccc(OC)cc3)C2)C1c1ccccc1F (stereo not shown) — higher, 3.47%
- Cc1cccn2c(=O)c3cc(C(=O)NCC4COc5ccccc5O4)n(C)c3nc12 (stereo not shown) — higher, 2.03%
- COc1ccc(NC(=O)Cn2cnc3scc(-c4ccc(C)cc4)c3c2=O)cc1 — lower, -6.3%
- Cc1ccc(C2Nc3ccccc3C(=O)N2c2ccc(C)cc2)cc1 (stereo not shown) — higher, 3.05%
- CCOC(=O)N1CCC(NC(=O)c2ccc3snnc3c2)CC1 — higher, 3.24%
- CCOc1ccc(C(CN)CC(=O)O)cc1OCC (stereo not shown) — higher, 0.503%
- Cc1cccc(N2C(=O)C3C4c5ccccc5C(C)(c5ccccc54)C3C2=O)c1 (stereo not shown) — higher, 2.6%
- O=S(=O)(c1ccc2ccccc2c1)N1CCCc2ccccc21 — higher, 1.83%
- O=C(O)COC(c1ccccc1)c1ccccc1 — higher, -1.21%
- CC(=O)Nc1nc(-c2ccccc2)nc(C)c1C(C)=O — higher, -0.0735%
- CN1CCN(C(=O)Cn2ncc3c4ccccc4nc-3c2O)CC1 — higher, 1.43%
- COc1ccc(-n2nc(C(=O)N3CCCCC3)nc2-c2ccccc2)cc1 — higher, -3.03%
- Cc1nc2c(c(C)nn2-c2ccccc2)c(C)c1C — higher, -1.24%
- CCN(c1ccccc1)S(=O)(=O)c1ccc(N)cc1 — higher, 4.49%
- COc1ccc(C2CC(c3cccs3)=NN2C(C)=O)cc1OC (stereo not shown) — higher, 0.361%
- CCOC(=O)c1c(NC(=O)c2cccc3ccccc23)sc(C)c1C — higher, 1.25%
- O=C(c1cc2ccc3cccnc3c2[nH]1)N1CCN(Cc2ccc3c(c2)OCO3)CC1 — higher, -5.57%
- Cc1ccc(NC(=O)CCc2ccc(S(=O)(=O)NC(C)c3ccccc3)cc2)cc1 (stereo not shown) — higher, -0.318%
- CCN(CC)CCCCCCOc1cccc(C)c1 — higher, 3.74%
- CN1C(C(=O)N2CCC3(CC2)OCCO3)=CC(c2ccco2)=NS1(=O)=O — higher, 2.32%
- O=C(Nc1cccc2ccccc12)c1nc2nc(-c3ccccc3)cc(C(F)(F)F)n2n1 — higher, -2.58%
- COc1ccc2sc(N(CCCN(C)C)C(=O)Cc3ccccc3)nc2c1 — higher, 2.75%
- Cc1nc2nncn2c(NCCC(C)C)c1C — higher, -0.808%
- CCOc1ccc(C2C(C(=O)OC)=CN(C(C)c3ccccc3)C=C2C(=O)OC)cc1 (stereo not shown) — higher, 1.88%
- COC(=O)c1nnn(CC(=O)NCc2ccc3c(c2)OCO3)c1C(=O)OC — higher, 0.351%
- CCOC(=O)N1CCC(NC(=O)CN2N=C(c3ccc(Cl)cc3)CCC2=O)CC1 — higher, -4.83%
- COc1ccc(C(=O)NCCc2ccc(OC)c(OC)c2)cc1 — higher, 1.92%
- O=C(CSc1cn(CC(=O)N2CCCC2)c2ccccc12)NCc1ccccc1Cl — higher, 2.46%
- Cc1nc2ccc(S(=O)(=O)N(C)CC(=O)NCCCc3ccccc3)cc2s1 — higher, 4.33%
- Cc1ccc(N2C(=O)CC(NCCc3cccc(F)c3)C2=O)cc1 (stereo not shown) — higher, -0.999%
- COc1ccc(/C=c2/sc3nc(-c4ccc(Cl)cc4)nn3c2=O)c(OC)c1 — higher, 3.04%
- CC1(C)CC(O)=C/C(=N/c2cc(-c3ccccc3)[nH]n2)C1 — higher, -3.53%
